Where two headings read alike, the source gives them in different places.
Target: SARS-CoV-2 NSP14 (Severe acute respiratory syndrome coronavirus 2, UniProt P0DTD1)
Assay: biochemical
[1] = LUM % inhibition, read-out: SARS-CoV-2 NSP14 inhibition: IC50
[2] = LUM % inhibition, read-out: SARS-CoV-2 NSP14 inhibition: Maximum response
[3] = fit of concentration-response curve
[4] = Hill slope of the concentration-response fit
[5] = maximum response, LUM % inhibition, read-out: SARS-CoV-2 NSP14 inhibition: Maximum response (%)
[6] = read-out: SARS-CoV-2 NSP14 inhibition: IC50
[7] = TDI-015051 series, retrospective VS set, biochemical MTase assay, read-out: Merged IC50
[8] = Merged IC50 (µM), TDI-015051 series, retrospective VS set, biochemical MTase assay

SMILES | IC50 [1] | Emax [2] | SARS-CoV-2 NSP14 inhibition: Hill slope [3] | SARS-CoV-2 NSP14 inhibition: Hill slope [4] | Emax [5] | IC50 [6] | IC50 [7] | IC50 [8]
Cc1ccc2cc(C(=O)N3CC4CCC4(CCNC(=O)c4n[nH]c5cccnc45)C3)cn2c1 (centres unmarked) [RU-0834098] | 25.6 µM | 80.4% | 2.5 | – | – | – | – | –
O=C(N[C@@H]1CC[C@H](CNC(=O)c2n[nH]c3ncccc23)C1)c1ccc(O)cc1F.O=C(O)C(F)(F)F [RU-0834158] | > 125 µM | 18.2% | 1.24 | – | – | – | – | –
Cc1cc(F)ccc1C(=O)NCc1ccc(CCNC(=O)c2cc(O)cc(F)c2)cc1 [RU-0834104] | 11.6 µM | 31.2% | 0.959 | – | – | – | – | –
O=C(Cn1nc(-c2nc(-c3ccc(F)cc3)no2)ccc1=O)Nc1ccccc1F [RU-0833881] | > 125 µM | 17.1% | 49.1 | – | – | – | – | –
Cn1ccn2ncc(C(=O)NCc3ccc(CCNC(=O)c4ccc(O)cc4)cc3)c12 [RU-0834197] | 16.8 µM | 49.2% | 1.01 | – | – | – | – | –
Cc1cc(C(=O)NCc2ccccc2CNC(=O)c2cncc(N(C)C)n2)cc2cn[nH]c12 [RU-0834177] | > 125 µM | 20.4% | 1.45 | – | – | – | – | –
CCCS(=O)(=O)N1CCCc2ccc(NS(=O)(=O)c3ccc(NC(=O)CC)cc3C)cc21 [RU-0833865] | – | – | – | 14 | 21.8% | > 125 µM | – | –
Cc1cc(C(=O)NCc2ccnc(C(=O)NCc3ncc(F)cc3F)c2)ccc1O [RU-0834131] | 14.2 µM | 30.3% | 1.08 | – | – | – | – | –
CC(NC(=O)c1cccc(CNC(=O)c2ccc3cncn3c2)n1)c1ccc(F)cc1 (centres unmarked) [RU-0834182] | 76.4 µM | 66.7% | 0.699 | – | – | – | – | –
CC(=O)N1CCN(S(=O)(=O)c2ccc(C(=O)NC3CCSc4c(F)cccc43)cc2)CC1 (centres unmarked) [RU-0833916] | > 125 µM | 8.86% | 9.15 | – | – | – | – | –
CN(c1cccc(Cl)c1)S(=O)(=O)c1cccc(C(=O)NC2CCCC2)c1 [RU-0833902] | > 125 µM | 8.12% | 244 | – | – | – | – | –
O=C(CC[C@H]1CC[C@@H](NC(=O)c2ccc3[nH]ncc3c2)C1)NCc1ncc(F)cc1F [RU-0834161] | > 125 µM | 27.1% | 1.35 | – | – | – | – | –
Cc1cc(CC(=O)N2CCn3ncc(CNC(=O)C4CCc5ccccc54)c3C2)ccc1O (centres unmarked) [RU-0834193] | > 125 µM | 12.2% | 117 | – | – | – | – | –
Cc1cc(CNC(=O)c2cn(CCNC(=O)c3ccc(O)cc3F)nn2)ccc1F [RU-0834128] | > 125 µM | 37.8% | 0.518 | – | – | – | – | –
CCn1c(C(=O)NCc2ccccc2C)cc(S(=O)(=O)N2CCC(C)CC2)c1C [TDI-013343, CCn1c(C(=O)NCc2ccccc2C)cc(S(=O)(=O)N2CCC(C)CC2)c1C] | – | – | – | – | – | – | 0.262 µM | –
Cc1c(S(=O)(=O)c2ccc3[nH]ncc3c2)cc2n1CCOCCCc1ccccc1CNC2=O [TDI-016617, Cc1c(S(=O)(=O)c2ccc3[nH]ncc3c2)cc2n1CCOCCCc1ccccc1CNC2=O] | – | – | – | – | – | – | 0.0294 µM | –
COc1ccccc1CNC(=O)c1cc(S(=O)(=O)N2CCC(C)CC2)c(C)s1 [TDI-013669, COc1ccccc1CNC(=O)c1cc(S(=O)(=O)N2CCC(C)CC2)c(C)s1] | – | – | – | – | – | – | 0.575 µM | –
C[C@H](O)c1ccc(C(=O)N[C@@H]2c3ccccc3C[C@H]2NC(=O)c2c[nH]nc2-c2ccccc2F)cc1 [RU-0833673] | – | – | – | 17.9 | 0.53% | > 62.5 µM | – | –
CC(Cn1ncc2ccccc2c1=O)NC(=O)Cn1nnc(-c2ccccc2)n1 (centres unmarked) [RU-0833913] | > 125 µM | 9.13% | 0.119 | – | – | – | – | –
O=C(Nc1cccc(F)c1)c1cccc(NC(=O)c2ccnc3[nH]ccc23)c1 [RU-0833674] | – | – | – | 2.17 | 2.07% | > 62.5 µM | – | –
O=C(NCc1nnc2ccccn12)c1ccc(Cl)c(S(=O)(=O)N2CCCCCC2)c1 [RU-0833912] | – | – | – | 0.803 | 40.2% | > 62.5 µM | – | –
Cc1c(S(=O)(=O)c2ccc3[nH]ncc3c2)cc(C(=O)NCc2c(Cl)cnn2C)n1CC(F)F [TDI-016691, Cc1c(S(=O)(=O)c2ccc3[nH]ncc3c2)cc(C(=O)NCc2c(Cl)cnn2C)n1CC(F)F] | – | – | – | – | – | – | – | 0.00106 µM
Cn1ccn2ncc(C(=O)NCc3ccc(CCNC(=O)c4ccc5cncn5c4)cc3)c12 [RU-0834109] | 16.7 µM | 52.2% | 1.25 | – | – | – | – | –
O=C(CCCn1c(=O)oc2ccccc21)Nc1cccc(N2CCCC2=O)c1 [RU-0833688] | – | – | – | 1.16 | 21.7% | > 62.5 µM | – | –
Cc1cc(C(=O)NC2CC(O)(CNC(=O)c3ncn4ccccc34)C2)cc2c1CCC2 (centres unmarked) [RU-0834102] | > 125 µM | 12.2% | 14.9 | – | – | – | – | –

SMILES | IC50 [1] | Emax [2] | SARS-CoV-2 NSP14 inhibition: Hill slope [3] | SARS-CoV-2 NSP14 inhibition: Hill slope [4] | Emax [5] | IC50 [6] | IC50 [7] | IC50 [8]
O=C(NCc1ccc2c(c1)CN(C(=O)C(O)c1cccc(F)c1)C2)c1cc2cn[nH]c2cn1 (centres unmarked) [RU-0834150] | > 125 µM | 16.6% | 13.3 | – | – | – | – | –
Cc1cc(C(=O)NCC2(C)CCC(NC(=O)c3cnn4ccccc34)C2)ccc1O (centres unmarked) [RU-0834129] | > 125 µM | 10.5% | 375 | – | – | – | – | –
Cc1c(CO)cccc1C(=O)NCC1CCC2CN(C(=O)Cc3cn4ccccc4n3)CC12 (centres unmarked) [RU-0834099] | > 125 µM | 9.83% | 53 | – | – | – | – | –
Cc1cc(C(=O)NCc2ccc(C(=O)NCCC3CCN(C)C3=O)cc2)ccc1O (centres unmarked) [RU-0834134] | > 125 µM | 32.8% | 0.491 | – | – | – | – | –
Cc1cccc(C(=O)Nc2cc(NC(=O)Cn3nc(C)cc3C)ccc2C)c1 [RU-0833869] | – | – | – | 10.7 | 19.6% | > 125 µM | – | –
O=C(NCCc1nnc2ccccn12)c1cccc(CS(=O)(=O)c2ccccc2)c1 [RU-0833926] | > 125 µM | 14.2% | 16.3 | – | – | – | – | –
Cc1c(CC(=O)NCc2cccc(CNC(=O)c3ccc4cncn4c3C)c2)cnn1C [RU-0834118] | > 125 µM | 16.4% | 2.44 | – | – | – | – | –
Cc1cc(C(=O)N[C@@H]2CC[C@H](CNC(=O)c3n[nH]c4ccccc34)C2)ccc1O [RU-0834155] | 32.4 µM | 49.6% | 0.765 | – | – | – | – | –
O=C(NCCn1ncc2c(NCCc3ccccc3)ncnc21)C1CC(=O)N(c2ccc(F)cc2)C1 (centres unmarked) [RU-0833867] | – | – | – | 128 | 27.7% | > 125 µM | – | –
CC[C@@H](Cn1ncc2ccccc2c1=O)NC(=O)CCn1ncc2ccccc21 [RU-0833889] | > 125 µM | 7.45% | 180 | – | – | – | – | –
O=C(NCCc1ccccc1Cl)c1cc2n(n1)CCCN(Cc1cccc(F)c1)C2=O [RU-0833878] | > 125 µM | 12.5% | 0.0847 | – | – | – | – | –
CCc1ccccc1NS(=O)(=O)c1ccc2ncc(C(=O)NCc3cccnc3)c(O)c2c1 [RU-0833866] | – | – | – | 269 | 25.9% | > 125 µM | – | –
O=C(NCc1nnc2ccccn12)c1ccc(Cl)c(S(=O)(=O)N[C@H]2CCCc3ccccc32)c1 [RU-0833667] | – | – | – | 9.99 | 3.98% | > 62.5 µM | – | –
O=C(NC[C@H]1C[C@H](CNC(=O)c2ncn3ccccc23)C1)c1c(F)cc(O)cc1F [RU-0834151] | > 125 µM | 10.9% | 221 | – | – | – | – | –
Cc1c(S(=O)(=O)c2cc(Cl)c3[nH]ncc3c2)cc(C(=O)N[C@@H]2CCN(c3ncc(F)cn3)C2)n1C [TDI-016705, Cc1c(S(=O)(=O)c2cc(Cl)c3[nH]ncc3c2)cc(C(=O)N[C@@H]2CCN(c3ncc(F)cn3)C2)n1C] | – | – | – | – | – | – | – | 3.63e-05 µM
O=C(NCCC12CCC1CN(C(=O)c1cccc(CO)c1)C2)c1n[nH]c2ccccc12 (centres unmarked) [RU-0834145] | > 125 µM | 11% | 20.5 | – | – | – | – | –
O=C(NCc1ccc(CNC(=O)c2n[nH]c3cccnc23)cc1)c1c(F)cc(O)cc1F [RU-0834171] | > 125 µM | 34.8% | 0.62 | – | – | – | – | –
CC(NC(=O)c1cccc(S(=O)(=O)Nc2cccc(Cl)c2)c1)c1ccc2c(c1)OCCO2 (centres unmarked) [RU-0833934] | > 125 µM | 9.86% | 2.93 | – | – | – | – | –
O=C(NC1CCCc2ccccc21)C1CCCN(S(=O)(=O)Cc2ccccc2)C1 (centres unmarked) [RU-0833890] | > 125 µM | 9.7% | 43.9 | – | – | – | – | –
Cc1cc(C(=O)NCc2cc(C(=O)NCc3ccc(F)cc3C)ccn2)ccc1O [RU-0834130] | > 125 µM | 14.5% | 14 | – | – | – | – | –
C[C@H](NC(=O)c1cccc(N2CCCC2=O)c1)c1nnc2ccccn12 [RU-0833631] | – | – | – | 1.2 | 5.75% | > 62.5 µM | – | –
O=C(NCc1cccc(C(=O)N2CCCCC2)c1)c1nccc2ccccc12 [RU-0833894] | > 125 µM | 5.92% | 14.4 | – | – | – | – | –
O=C(NCc1ccc(CNC(=O)C2CCC(O)CC2)cc1)c1ccc(F)cc1Cl (centres unmarked) [RU-0834122] | > 125 µM | 35.5% | 0.697 | – | – | – | – | –
COc1ccc(CC(=O)Nc2ccc(Cl)c(S(=O)(=O)Nc3ccccc3OC)c2)c(OC)c1 [RU-0833911] | > 125 µM | 25% | 1.88 | – | – | – | – | –
O=C(CNc1cccc(S(=O)(=O)N2CCCCC2)c1)N1CCCc2cccc(F)c21 [RU-0833644] | – | – | – | 19.2 | 1.99% | > 62.5 µM | – | –

From paper PMC12434519 (ACS Medicinal Chemistry Letters, 2025)
